These results are taken from paper PMC12136788.

The other results are listed elsewhere or left out.

The labels stand for the following.
T1: UNK ZnF1-3 (human, UniProt Q9C0B0 31-174)
T1 sequence: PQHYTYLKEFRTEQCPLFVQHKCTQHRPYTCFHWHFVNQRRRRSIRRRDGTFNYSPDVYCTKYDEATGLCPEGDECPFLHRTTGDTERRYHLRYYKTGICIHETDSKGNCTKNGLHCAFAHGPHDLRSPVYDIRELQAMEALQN

B1: chr16:45382771:45382772:-_ENSMUSG00000022661_ENSMUST00000163230|mus_mus|mus_mus_mus_hu_True|58_98 (ssRNA)
RNA: GGGAGUUCUACAGUCCGACGAUCCUGGGUCAUGUUAUGGGCCCAAUGGACAGGGAGGGCAUGCUUCUCAAAAAAUGUGAACUACUCUCUAAGACUAACAAUAUUUAUCUAGCUAUAAAAAUAAGUUAAAUGAAUAAGUUAAGACAACAGAGGAUUGAGCAUCA
B2: chr1:129704038:129704039:+_ENSMUSG00000026349_ENSMUST00000027587|mus_hu|FALSE|FALSE (ssRNA)
RNA: GGGAGUUCUACAGUCCGACGAUCUACAGCAAUUAGGUUGCUCACUGAUUUCUGAUAUUAACGUAUCAGAAUGUGAUUCUCAAAUUAGUAUCAUAGCUUGGUACCCAAGGUCAGAGAAUGUGCUGCUUUUCCAAUGCAAAAAUCCAACAGAGGAUUGAGCAUCA
B3: chr5:37516192:37516193:+_ENSMUSG00000063646_ENSMUST00000043794|mus_mus|FALSE|FALSE (ssRNA)
RNA: GGGAGUUCUACAGUCCGACGAUCUCCGUUUGAGAGCUUACAACAGAUAGAGUCUCUUACUUCGAGUUCUAGCACUCUGAAUUCUAACAGCUCGUUCUGGUCCUUGGCGUCUUGCAUUUCGCUCUUUAGCUGGUUCUCCUCCAUCAACAGAGGAUUGAGCAUCA
B4: chr7:35424158:35424159:-_ENSMUSG00000030499_ENSMUST00000108069|mus_mus|FALSE|FALSE (ssRNA)
RNA: GGGAGUUCUACAGUCCGACGAUCGUACAUCAGCAUCUUUACAAUAUUAAAGGAGUCAUAUACAAGUCUACAGGCGUUAUACACAAGGGGGUGCCGGCCAGGGCACCCCAUCUGUCAGUUCUUUGCGGUUCCUCCACUUGGGAGCAACAGAGGAUUGAGCAUCA
B5: chr7:151048522:151048523:+_ENSG00000013374_ENST00000566856|hu_mus|hu_hu_hu_mus_True|28_78 (ssRNA)
RNA: GGGAGUUCUACAGUCCGACGAUCCUGUUUCUUAUUUAUUACGAUCUUGAUGUAAUUUUCUUGAAGUCCGAAAGUUUCAGCUAUUUGACACCUCAGGUCUCUACCAGUGAUGUGCAAGCGGGUCUCCAACAAGCUUUUCUUAUCCAACAGAGGAUUGAGCAUCA
B6: 70707100_70714003_815_CDS_ENSMUSG00000020817_ENSMUST00000076270|mouse|control|control (ssRNA)
RNA: GGGAGUUCUACAGUCCGACGAUCGGCCUCCAGAUAAUGAUUCAGCUCCUUAACCUUUGAGGCCUCCAGCUCUUUAAUCUUGUCUUCAGCUUCUGUCAGUUUAUCUUUCAGAGCUGCAAUUUCCUUCUCCAUGGGCAUCACGACCAACAGAGGAUUGAGCAUCA
B7: chr7:883111:883112:+_ENSG00000164828_ENST00000456758|hu_mus|FALSE|FALSE (ssRNA)
RNA: GGGAGUUCUACAGUCCGACGAUCGAGGUCACGUGGUUUGAGAGUCCUGUCUCUGGAGUACACCCUGGAGGUGGUCCCGUGGAUGGCAGAGUGGGCUGUGAGUGCGUCAGUGCGCGCUGAGAGCAUCCUGCAGUCACGGCAAGUCAACAGAGGAUUGAGCAUCA
B8: chr18:38477064:38477065:+_ENSMUSG00000060450_ENSMUST00000072376|mus_hu|FALSE|FALSE (ssRNA)
RNA: GGGAGUUCUACAGUCCGACGAUCUGCAGAUAUAAUUCAAGAACAUUCAGCUUGGGAAUAUAUUAAGCUUUCUCCUAUUCCAGCAGAGGAAAUAAAAACAUGUGUUCCUGGAAUUAAUAUUAAAAUCAUCCUUACAAACAGAAGCAACAGAGGAUUGAGCAUCA
B9: chrX:11616105:11616106:-_ENSMUSG00000040363_ENSMUST00000043441|mus_hu|FALSE|FALSE (ssRNA)
RNA: GGGAGUUCUACAGUCCGACGAUCGAUGUUAUAACACGGUAAGAGGGGGGUCUCUGAAAAUUCAAAUUCAAACACAUCGCUAUAGGCAUCGUCAUCAUCAUCCUGGUCUUCUGGUCCUGGGGGGUUGGCUAAAACAUCAUAGCCCAACAGAGGAUUGAGCAUCA
B10: chr9:130210260:130210261:-_ENSG00000197958_ENST00000361436|hu_hu|motif|central (ssRNA)
RNA: GGGAGUUCUACAGUCCGACGAUCGCCCACUGACUGGGCAGUCCCCAGGAUCUCUUUAAUGGUUCCAGAGAGUUCUCUGGCGGAGGAUCGGUGCCGCAUCUGUCGAGCAAUGUUGACAAUCUCAUCAAAAGUGAUAUUCCCACUCAACAGAGGAUUGAGCAUCA
B11: chr1:172411362:172411363:-_ENSG00000135845_ENST00000344529|hu_hu|FALSE|FALSE (ssRNA)
RNA: GGGAGUUCUACAGUCCGACGAUCCAUGGCAUAGAUGGUGUCAGUGCUGACAGACUCUGUAAGGGUCUUCAGCACUGGUGAAAACCCAUAAGUGAAAGUAAUGAAGACUAGGGCACUCUUCAGGUCAGCCCACCGGGUCUGCCCCAACAGAGGAUUGAGCAUCA
B12: 101235404_101239261_1892_CDS_ENSMUSG00000042035_ENSMUST00000043983|mouse|control|control (ssRNA)
RNA: GGGAGUUCUACAGUCCGACGAUCGCUGCUUUUGAGGGGCAGCACGACGAUGGGGAUGUUCUUGGGCCGCUUGCUCUCCUUGUCUAUGAACUCGCCAGUGACAGUCUUCUCUCGCUCAGUCACCCGGCAGUUGUAUUUGCCACUCAACAGAGGAUUGAGCAUCA
B13: chr4:17845017:17845018:+_ENSG00000109805_ENST00000514176|hu_mus|hu_hu_hu_mus_False|1_38 (ssRNA)
RNA: GGGAGUUCUACAGUCCGACGAUCGCUCUCUUAACUUGUAUCUUCAUUAAGGAACUCUGCAAGGUUAAGUUUACUUUUCUGUAGCGCAGCUGUUUUGCUCGUCUUGGGUAAUCUCAUCUUCAUUUCUGAUGGUGGUUUGGAACUCAACAGAGGAUUGAGCAUCA
B14: chr11:46405157:46405158:+_ENSG00000110492_ENST00000395566|hu_hu|hu_hu_hu_mus_False|48_48 (ssRNA)
RNA: GGGAGUUCUACAGUCCGACGAUCCCCUCCCCACUUUGGGCACUUGGUGUGGGCGUGAGAGGACAGGCGUGAUUGACAGAGCUGACAAGCAGACAGAAGGCACUGGUGGGUUAUAUCUUGGGCCUGUGGGAGAGGAGGGCUCCGCAACAGAGGAUUGAGCAUCA
B15: 31412609_31414751_1557_CDS_ENSMUSG00000039100_ENSMUST00000090227|mouse|control|control (ssRNA)
RNA: GGGAGUUCUACAGUCCGACGAUCUUCCUGUACUGGAUUAAAAUCUGGAUCGUUCAAAUUCCUCAGAAACCAUAAGACACCAGGUCGAAGUACCUCUCUCAGUAACAGGAUGAAGGAGGCAAAGUAGAACACAUACACCAUUCCCAACAGAGGAUUGAGCAUCA
B16: chr1:184247048:184247049:-_ENSMUSG00000047539_ENSMUST00000051431|mus_hu|motif|central (ssRNA)
RNA: GGGAGUUCUACAGUCCGACGAUCCUGGAACUAGAACCACAUUCCAAUUUACUUUCUAUUCCGAAGACGUUUAGAUUUCCGGAGAGAGUCUAUGGCUUCCGUGGCCUUUUUUCGUUUCCGAGGAGACUCCUCAUUCUGCCCGGACAACAGAGGAUUGAGCAUCA
B17: chr17:35122734:35122735:+_ENSMUSG00000007050_ENSMUST00000114011|mus_hu|motif|central (ssRNA)
RNA: GGGAGUUCUACAGUCCGACGAUCCCAUCCCCAAAUGAAUCACAUGCUGCCCUGGAAAGACCUAGGAAACUCUCCGGCCAUCUCCAGAGAAGUAGUGAGAAAGGCAGGUGCUGGGGACUGGGAAGGCUUUGAAGUUUCCCAGCCCAACAGAGGAUUGAGCAUCA
B18: chr1:225977196:225977197:+_ENSG00000143742_ENST00000304786|hu_hu|motif|central (ssRNA)
RNA: GGGAGUUCUACAGUCCGACGAUCAUUUCCAAAAGUAAAUAAAGGCUUUCUAACUGAAAACAUUUGCAUCCCUAGCUCUCGGAAGUAAUUAAAAAGAAAAUUACAAAAAAUGACCUCUAAGCUUCUGAACAGCCCACUUAGUUACAACAGAGGAUUGAGCAUCA
B19: 49420930_49422925_1199_CDS_ENSG00000166200_ENST00000299259|human|control|control (ssRNA)
RNA: GGGAGUUCUACAGUCCGACGAUCCACAUCAGCUACAUCUAUGUUUAACUCCUUAGAAAUAAAAGGAAUAUGUAUUCUUGUGUAAGGCUUAAUUAAUUUUAUAAGCACUUGUGUUCUGAUGUUUCGCAAAAGCUCUUCAAUGUGCAACAGAGGAUUGAGCAUCA
B20: chr14:76904430:76904431:+_ENSMUSG00000022010_ENSMUST00000022587|mus_mus|mus_mus_mus_hu_True|28_88 (ssRNA)
RNA: GGGAGUUCUACAGUCCGACGAUCUGCAGCCAAAAACACCCUCGUGGCGGGAGGGAGGGAACACCAGCAGCCUUGUAUAAGCUAGAUAAAAUCUUCUGGCUUUCCGCAGCUCAGGGCGAAACAGAAAACGGCAGCCCUAAUUUACAACAGAGGAUUGAGCAUCA
B21: chr11:102301342:102301343:-_ENSMUSG00000034685_ENSMUST00000049057|mus_mus|FALSE|FALSE (ssRNA)
RNA: GGGAGUUCUACAGUCCGACGAUCAGGCACCUCUGUCCCAUUGCCUGUUAGCAGGUGGACGCUCACAGCAGCCAGUGGUAUCAGCUCCAGCCAGGAGCCAUUGCCUGAGCUGGAGGCCUCGGUCCCCAGGAAGGCAGGGAAAGCCAACAGAGGAUUGAGCAUCA
B22: chr11:60966614:60966615:-_ENSMUSG00000042506_ENSMUST00000041683|mus_hu|FALSE|FALSE (ssRNA)
RNA: GGGAGUUCUACAGUCCGACGAUCACUGAGCAGUGAGUAGCAGCUGCCACUGUCACUACCCCCUCCCCAGCCCAGCCAGCUAAGGAGCUGGGUCUGGUCCCCACCAGCUUCUCCAUGGCCUGUGAGCUAAGAAUAGGUUUCACGCAACAGAGGAUUGAGCAUCA

The target in the experiment is T1, UNK ZnF1-3. The experiment can be described thus: nsRBNS (natural sequence RNA bind-n-seq); RBNS binding buffer (assumed for nsRBNS): 25 mM Tris pH 7.5, 150 mM KCl, 3 mM MgCl2, 0.01% Triton X-100, 500 ug/ml BSA, 20 U/ml SUPERase-In, 4 C; UNK is unkempt and MSI1 is Musashi-1; names of the RNAs are library labels; protein concentration not given here; high values mean tight binding.
B1 displayed a binding signal of 0.714 enrichment R.
The same measure for B2: 0.97 enrichment R.
Regarding B3, the binding signal turned out to be 0.441 enrichment R.
The same measure for B4: 0.591 enrichment R.
B5 showed a binding signal of 0.629 enrichment R.
Under B6 stands 0.827 enrichment R; under B7, 0.924 enrichment R.
B8: the binding signal amounted to 1.74 enrichment R.
The same measure for B9: 1.4 enrichment R.
B10 had a binding signal of 1.24 enrichment R.
B11 came in with a binding signal of 0.653 enrichment R.
Under B12 stands 0.651 enrichment R; under B13, 0.399 enrichment R; under B14, 2.26 enrichment R.
B15 yielded a binding signal of 1.35 enrichment R.
The same measure for B16: 0.585 enrichment R.
Under B17 stands 0.705 enrichment R.
The same measure for B18: 1.85 enrichment R; for B19: 0.889 enrichment R.
Molecule B20 showed a binding signal of 1.54 enrichment R.
The same measure for B21: 1.1 enrichment R; for B22: 1.04 enrichment R.
